In all, about 150,000 compounds went through this assay and about 540 (0.36%) showed an effect of 50% or more. The list shows a part of the results.
Tested on: Plasmodium falciparum
Assay: Primary screen in NF54 nanoGlo assay, in single point, at 2uM, 72h; a lower Z score goes with more inhibition
Assay type: functional, Erythrocyte
Settings: timepoint 72 hour

Row | SMILES | % Inhibition [%] | Z score
1 | Cc1nn(CCC(C)C)c2nc(-c3cnc(C)n3C)[nH]c12 | -7 | 1.19
2 | N#CCCN(Cc1cc(F)c(F)c(F)c1)CC1CC1 | -2 | 0.2
3 | CCc1c(C(=O)N2CCC(c3ccnn3CCO)CC2)cnn1-c1cccc(Cl)c1 | -3 | 0.24
4 | CC(C)(C(=O)NCc1c(F)cccc1OC(F)F)c1c[nH]cn1 | -1 | 0.06
5 | NC(=O)Cn1cc2c(n1)[C@@H](NS(=O)(=O)c1ccccc1Cl)CCC2 | -3 | 0.31
6 | CC[C@@H](CCO)NC(=O)Nc1sc(C)nc1C | 13 | -1.32
7 | Cc1nnnn1[C@@H](C(=O)N1CCCNC(=O)C1)c1ccccc1 | -8 | 0.73
8 | O=S(=O)(c1ccccc1)N1CCC(=C2CC2)CC1 | -14 | 1.58
9 | CC(=O)c1cccc(NC(=O)c2ccc(N(C)C3CCCCC3)cc2)c1 | 3 | -0.52
10 | Cc1cc(C)c(NC(=O)CN2CCC3(CC2)N=C(c2ccccc2)C(=O)N3)c(C)c1 | -11 | 1.12
11 | N#Cc1cccc(C(=O)Nc2ccccc2-c2ccc(=O)[nH]n2)c1 | 3 | -0.43
12 | c1ccc(-c2csc(N3CCN(c4ccccn4)CC3)n2)cc1 | 2 | -0.26
13 | C=CCOC[C@@H](O)CN(CCCOC)Cc1ccc(F)cc1F | -1 | 0.17
14 | Cc1cc(=O)c(C(=O)N2CCC(C)(C(=O)N(C)C)CC2)cn1C | -10 | 0.96
15 | O=C(Nc1cccc(CO)c1)C1=CCCC1 | -6 | 0.92
16 | Cc1ccc(C2CN(C)C3(C(=O)N(Cc4cccc(Cl)c4)c4ccccc43)C2C(=O)c2ccccc2)cc1 (stereo unspecified) | 3 | -0.36
17 | O=C(NCC1CCN(Cc2nnc(-c3ccccc3)o2)CC1)[C@H]1CCCO1 | 6 | -1.08
18 | CCn1cc(S(=O)(=O)N2CC[C@H](CCOc3ccccc3F)C2)cn1 | -23 | 4.44
19 | CNC(=O)Cn1nc(COC)n(-c2ccc3c(c2)OCO3)c1=O | -4 | 0.77
20 | O=C(Cn1cnc2ccccc2c1=O)NCc1cc(C2CC2)ncn1 | 21 | -2.77
21 | Cc1ccc(-n2cccc2CC(=O)N[C@@H](C)c2cccnc2)cc1 | 3 | -0.45
22 | COC(=O)C[C@H]1CN(C(=O)CCN2C(=O)c3ccc(C)cc3C2=O)CCO1 | -6 | 1.1
23 | CC(=O)c1cccc(NC(=O)Cn2nc3c(N4CCCCCC4)nccn3c2=O)c1 | -4 | 0.38
24 | Cc1ccccc1Cn1c2c(c(C)c1C(=O)NCc1ccc3c(c1)OCO3)CCCC2 | -17 | 2.5
25 | CC(C)(C)OC(=O)N1CCC[C@H](NC(=O)c2ccccc2Br)CC1 | 0 | -0.08
26 | O=S(=O)(c1ccc(Cl)cc1)N1CCC(n2cnc3cccnc32)CC1 | -1 | 0.09
27 | CCn1cc(C)c(C(=O)O)c1CC(=O)N1CCN(c2ccc(F)cc2)CC1 | -5 | 0.6

Row | SMILES | % Inhibition [%] | Z score
28 | O=C(C(F)F)N1CCCc2c(Br)cccc2C1 | -11 | 1.32
29 | COc1ccc(C(=O)NCCNC(=O)c2nc(-c3cccc(C)c3)no2)cc1OC | -12 | 1.17
30 | O=C(Cn1nnc2ccccc21)N(Cc1cccnc1)C1(C(=O)Nc2ccc(N3CCOCC3)cc2)CCCCC1 | 2 | -0.25
31 | O=C(C1CCC1)N1CCO[C@H](c2cc(Cl)cc(Cl)c2)C1 | -6 | 0.75
32 | CCC[C@H](C)C(=O)N1CCc2c(c(C(=O)O)nn2Cc2ccc(OC)cc2)C1 | -11 | 1.35
33 | CC(C)[C@H](CNC(=O)CCCOc1ccccc1Br)N1CCOCC1 | -16 | 2.09
34 | COc1cccc(N2CCC(N3C[C@H](O)[C@@H](F)C3)CC2)c1 | 1 | -0.1
35 | COc1c(N)ccnc1C#CCC1CCCC1 | 3 | -0.34
36 | Cc1oc(-c2ccc(C(C)C)cc2)nc1Cn1c(=O)cc(-c2ccccc2)c2c(C)nn(C)c21 | -6 | 1.11
37 | CC(C)c1cc(CN(C)C(=O)[C@@H](C)Cn2cccn2)on1 | -11 | 2.19
38 | Cc1nc(C(=O)N[C@@H]2CNC(=O)C2)c(Br)s1 | -11 | 1.43
39 | CC(C)[C@H](NC(=O)CCS(=O)(=O)N(C)C)c1cnn(C)c1 | -5 | 0.63
40 | Cc1cc([C@@H](C#N)c2ccc(Cl)cc2)c(Cl)cc1NC(=O)Cc1ccc(F)cc1 | 4 | -0.5
41 | Cc1ccc(C(=O)N2CCN(C(=O)NCc3ccc(Cl)cn3)CC2)cc1 | -2 | 0.25
42 | C1=Cn2nc(/C=C/c3c[nH]c4ccccc34)nc2-c2ccccc2O1 | -30 | 3.55
43 | COc1ccc(C(C)CN2CCC(S(=O)(=O)NC(C)C)C2)cc1 (stereo unspecified) | -10 | 0.93
44 | Cc1ccc2nccc(C(=O)N3CCC[C@@](CO)(CCOc4ccccc4)C3)c2c1 | -2 | 0.44
45 | CN(CCNS(C)(=O)=O)CCc1nccs1 | -14 | 1.42
46 | CC(=O)NCCCS(=O)(=O)c1ccc(F)c(F)c1 | -10 | 1.32
47 | Cc1nnc([C@H](C)N(C)CC2(C)CCN(Cc3ccccc3)CC2)o1 | -5 | 0.84
48 | O=S(=O)(c1ccccc1)N1CCC(c2nccn2CC2CC2)CC1 | -16 | 1.97
49 | CC1(C)C[C@@H](NC(=O)c2ccnc3ccncc23)CCS1(=O)=O | 10 | -1.07
50 | C[C@]1(CCC(=O)NCc2cc(-c3ccccc3)[nH]n2)CCC(=O)N1 | 1 | -0.1
51 | c1ccc(CNc2cc(-n3cccn3)nc(-c3ccccc3)n2)cc1 | 7 | -1.27
52 | COc1cccc(CN2CCN(C)C2=O)c1OC | -5 | 0.94
53 | COc1ccc(C2=NN=C(n3nc(C)c(-c4ccc(OC)cc4)c3N)c3ccccc3C2)cc1 | 5 | -0.64

Source: ChEMBL document CHEMBL4888484, “Replenishing the malaria drug discovery pipeline: Screening and hit evaluation of the MMV Hit Generation Library 1 (HGL1) against asexual blood stage Plasmodium falciparum ,using a nano luciferase reporter read-out” (2022)
